Measured values: the RNAGym collection of RNA variant scans (doi:10.1073/pnas.2313332121)
Variants at the floor of the assay are shown more often than the library holds them.

B1: TPR 5TU (parent)
chain: GGAUCUUCUCGAUCUAACAAAAAAGACAAAUCUGCCACAAAGCUUGAGAGCAUCUUCGGAUGCAGAGGCGGCAGCCUUCGGUGGCGCGAUAGCGCCAACGUUCUCAACUAUGACACGCAAAACGCGUGCUCCGUUGAAUGGAGUUUAUCAUG

Variants of: B1
Assay: polymerase ribozyme fitness, log enrichment relative to wild type (log ratio); higher = more active; in vitro selection for triplet polymerase activity
Outline: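 Each subunit of a heterodimeric triplet polymerase ribozyme was mutagenized into a library by PCR, transcribed, and subjected to one round of in vitro selection, run in triplicate. Libraries were annealed with a biotinylated primer, the partner subunit and triplets, incubated frozen at −7 °C, and extended constructs were gel-excised, captured on streptavidin beads and recovered by RT-PCR. Input and output libraries were sequenced on Illumina, keeping genotypes with ≥10 input reads and ≥1 read per output. Fitness is log base 2 of genotype enrichment divided by wild-type enrichment, from inverse-variance-weighted replicate averages.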

Polymerase ribozyme fitness (log ratio), ≤ -4.2:
GGAUCUUCUUGAUCUAACAAAAAAGGCAAAUCUGCCACAAAGCUUGAGAGCAUCUUCGGAUGCAGAGGCGGCAGCCUUCGGUGGAGCGAUAGCGCCAACGUUCUCAACUAUGACACGCAAAACGCGUGCUCCGUUGUAUGGAGUUUAUCAUG [C10U A26G C85A A137U]
GGAUCUUCUGGAACUAACAAAAAAGACAAAUCUGUCACACAGCUUGAGAGCAUCUUCGGAUGCAGAGGCGGCAGCCUUCGGUGUCGCGAUAGCGCCAACGUUCUCAACUAUGACACGCAAUGCGCGUGCUCCGUUGAAUGGAGUUUAUCAUG [C10G U13A C35U A40C G84U A121U A122G]
GGAUCUUCUUGAUCUAACAAAAAAGACAAUUCUGCCACAAAGCUUGAGCGCAUCUUCGGAUGCAGAGGCGGCAGCCUUCGGUGGCGUGGUAGCGGCAACGUUCCCAACUAUGACAUGCUAAACGCGUGCUCCGUUCAAUGGAGUUUAUCAUG [C10U A30U A49C C87U A89G C95G U104C C116U A119U G136C]
GGAUCUUCUUGAUCUAACAAAAAAGACUAAUCUGCGACAAAGCUUGAGAGCAUCUUCGGAUGCAGAGGCGGCAGGCUUCGGUGGCGCGAUAGCGCCAACGUUCUCAACUUUGACACGCAAAACGCGUGCUUCGUUGAAUGGAGUUUAUCAUG [C10U A28U C36G C75G A110U C131U]
GGAUCUUCUUGAUCUAACAAAAAAGACAAAUCUGCCACGAAGCUUGAAAGCAUCUUCGGAUGCAGUGGCGGCAUGCUUCGGUGGCGCGAUAGCGCCAACGUUCUAAACUAUGACACGCAAAACGCGUGCUCCGUUGAAUGGAGUUUAUCAUG [C10U A39G G48A A66U G74U C75G C105A]
GGAUCUUCUUGAUCUAACAAAAAAGACUAAUCUGCCACAAAGCUUGAGAGCAUCUUCGGCUGCAGAGGCGGCAGCCUUCGGUGGCGAGAUAGCGCUAACGUUCUCAACUAUGACACGCAAAACGCGUGCUCCGUUGAAUGGAGUUUAUCAUG [C10U A28U A60C C87A C96U]
GGAUCUUCUGGACCUAACAAAAAAGACAAAUCUGCCACAAAGCUUGAGAGCAUCUUCGGAUGCAGAGGCGGCAGCCUUCGGUGGGGCGAUAGCGCCAACGUUCUCAACGAUGACUCGCAAAACGCGUGCUCCGUUGAAUUGAGUUUAUCAUG [C10G U13C C85G U109G A115U G140U]
GGAUCUUCUUGGUCUAACAAAAAAGACAAAUCUGCCACAAAGCUUGAGAGCAUUUUCGGAUGCAGAGGCGUCAGCCUUCGGUGGCGCGAUAGCACCAACGUUCUCAAAUUUGACACGGAAAACGCGUGCUCCGUUGAAUGGAGUUUAUCAUG [C10U A12G C54U G71U G94A C108A A110U C118G]
GGAUCUUCUUGAUCUAACAAAAAAGUCAAAUCUGUCACAAAGCUUGAGAGCAUUUUCGGCUGCAGAGGCGGCAGCCUUCGGUGGCGCGAUAGCGACAAUGUUGUCAACUAUGACACGCAAAACGCGUGCUCCGUUGAAUGGUGUUUAUCAUG [C10U A26U C35U C54U A60C C95A C99U C103G A142U]
GGAUCUUCUUGAUCUAACAAAAAAGACAAAUCUGCCACAAAGCUUGAGCGCAUCUUCGGAUGCAGAGGCGGCAGCCUUCGGUGGCGCGAUAGCGUCAACGUUCUUAACUAUGACACGCACAACGCGUGCUCCGUUGAAUGGAGUUUAACAUG [C10U A49C C95U C105U A120C U148A]
GGAUCUUCUUGAUCUAACAAAAAAGACAGAUCUGCCACAAAGCUUGAGAGCAACUUCGGAUGCAGUGGCGGCAGCCUUUGGUGGCGCGAUAGCGCUAACGUUCUCAACUAUGACACGCAAAACGCGUGCUCCGUUGAAUGGAGUUUAUCAUG [C10U A29G U53A A66U C79U C96U]
GGAUCUUCUUGAUCUAUCAAAAAACACAAAUCUGCCACAAAGCUUGAGAGCAUCUUCGGAUGCAGAGGCGGCAGCCUUCGGUGGCGAGAUAGCGCCAACGUUCUCGAAUAUGACACGCAAAACGCGUGCUCCGUUGAAUGGAGUUUAUCAUG [C10U A17U G25C C87A A106G C108A]
GGAUCUUCUUGAUCUAACCAAAUAGAAAAAUCUGACACAAAGCUUGAGAGCAUCUUCGGAUGCAGAGGCGGCAGCCUUCGGUGGCGCGAUAGCGCCUACGUUCUCAACUAUGACACGCAAAACGCGUGCUCAGUUAAAUGGCGUUUAUCAUG [C10U A19C A23U C27A C35A A97U C132A G136A A142C]
GGAUCUUCUUGAUCUAACAAAAAAGACAGAUCUGCCACAAAGCUUGAGAGCAUCUUCGAAUGCAGAGGCGGCAGCCUUCGAUGGCGCGAUAGCGCCGACGUUCUCAACUAUGACACGCAAAACGCGUGCUCCGUUGAAUGGAGUUUAUCAUG [C10U A29G G59A G81A A97G]
GGAUCUUCUGGAUCUAACAAAAAAGACAAAUCUGCCACAAAGCUUGAGAGCACCUUCGGAUGCAGAGGCGGCAGCCUUCGGUGGCGCGAUAGUGCCAACGUUCUCAGCUAUGACACGCAAAACGCGUGCUCCGUUGAAUGGAGUUUAUCAUG [C10G U53C C93U A107G]
GGAUCUUCUUGAUCUAACCAAAAAGACAAAUCUGCCACAAAGCUGGAGAGCAUCUUCGGAUGCAGAGGCGGGAGCCUUCGGUGGCGCGACAGCGCCAACGUUCUCAACUAUGACACGCAAAACGCGUGCUCCGUGGAAUGGAGUUUAUCAUG [C10U A19C U45G C72G U90C U135G]
GGAUCUUCUUGAUCUCACAAAAAAGACAAAUCUGCCACCAAGCUUGAGAUCAUCUACGGAUGCAGACGCGGCAGCCUUCGGUGGCGCGAUAGCCCCAACGUUCUCAAUUAUGACACGCAAAACGCGUGCUCCGUUGAAUGGAGUUUAUCAUG [C10U A16C A39C G50U U56A G67C G94C C108U]
GGAUCUUCUUGAUCUGACAAAAAAGACAAAUCUGCCACAAAGCUUGAGAGCAUCUUCGGAUGCAGAGGCGGCAGCCUUCGGUGUCGCGAUAGCGCCAACGUUCUCAACUAUGACACGCAAAACGCGUGCUCCGUUGAAUUGAGUUUAUCAUG [C10U A16G G84U G140U]
GGAUCUUCUUGAUCUAACAAAGAAGACAAAUCUGCCACAAAGCUUGAGAGCAUCUUCGGAUGCAGAGGCGGCAGCCUUCGGUGGCGGGAUAGCGCCAACGUUCUCAACUAUGACACGCAAAACGCGUGCUCCGUUGAAUGGAGUUUAUCAUG [C10U A22G C87G]
